From patent US20260166128A1, “HUMAN AMYLIN ANALOG, AND DERIVATIVE THEREOF AND USE THEREOF” (priority 2022, published 2026)
Part of at least one peptide drawing is inferred or uncertain, most often the ends. Numbered stars: 1 amine (or outer) side, 2 acyl side, 3 side chain; on linkers, the order of the positions; unused ones are H or OH. Bridge positions count the residues as written; N and C are the ends. Square brackets hold non-standard residues; d marks the D form. Side chains are listed from the residue outwards. Peptide text beside a SMILES is read from it. * marks the point of attachment. C20 diacid = O=C(O)CCCCCCCCCCCCCCCCCCC(=O)*; C18 diacid = O=C(O)CCCCCCCCCCCCCCCCC(=O)*; γGlu = O=C(O)[C@H](CCC(=O)[*:2])N[*:1]; Hyp = O=C(O)[C@@H]1C[C@@H](O)CN1; AEEA = NCCOCCOCC(=O)O

Assay: Freeze-thaw stability of derivatives (freeze-thaw yield by liquid chromatography)
Assay type: physicochemical
Conditions: for Dissolution property: appearance after dissolution at 0.2 mg/ml in 20 mM phosphate buffer solution (PB) (pH 7.0); for Freeze storage property: appearance after overnight storage at −20° C. and thawing to room temperature, 0.2 mg/ml in 20 mM PB (pH 7.0); for Freeze storage yield: concentration of polypeptide after freezing and thawing / concentration before, by liquid chromatography, −20° C. overnight
In short: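 Freeze-thaw yield is the ratio of peptide concentration after versus before one overnight −20° C freeze and room-temperature thaw, both quantified by RP-HPLC of supernatant after centrifugation. Samples were 0.2 mg/ml freeze-dried derivative in 20 mM PB, pH 7.0.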

## CC[C@H](C)[C@H](NC(=O)[C@@H]1CCCN1C(=O)CNC(=O)[C@H](CC(C)C)NC(=O)[C@H](CC(N)=O)NC(=O)[C@H](CCCCNC(=O)CC[C@H](NC(=O)CCCCCCCCCCCCCCCCCCC(=O)O)C(=O)O)NC(=O)[C@H](CO)NC(=O)[C@H](CO)NC(=O)[C@H](Cc1c[nH]cn1)NC(=O)[C@H](CCCNC(=N)N)NC(=O)[C@H](CC(C)C)NC(=O)[C@H](Cc1ccccc1)NC(=O)[C@H](CC(=O)O)NC(=O)[C@H](C)NC(=O)[C@H](CC(C)C)NC(=O)[C@H](CCCNC(=N)N)NC(=O)[C@H](CCC(N)=O)NC(=O)[C@@H](NC(=O)[C@H](C)NC(=O)[C@@H]1CSSC[C@H](NC(=O)[C@@H](N)CCCNC(=N)N)C(=O)N[C@@H](CC(N)=O)C(=O)N[C@@H]([C@@H](C)O)C(=O)N[C@@H](C)C(=O)N[C@@H]([C@@H](C)O)C(=O)N1)[C@@H](C)O)C(=O)N[C@@H](CC(C)C)C(=O)N1CCC[C@H]1C(=O)N1CCC[C@H]1C(=O)N[C@H](C(=O)N[C@@H](CC(N)=O)C(=O)N[C@H](C(=O)NCC(=O)N[C@@H](CO)C(=O)N[C@@H](CC(N)=O)C(=O)N[C@H](C(=O)N1C[C@H](O)C[C@H]1C(N)=O)[C@@H](C)O)C(C)C)[C@@H](C)O [PD090] (H-RCNTATCATQRLADFLRHSSK([γGlu-C20 diacid])NLGPILPPTNVGSNT[Hyp]-NH2; disulfide 2-7)
  Dissolution property: Clear
  Freeze storage property: Clear
  Freeze storage yield: 99.24%

## CC[C@H](C)[C@H](NC(=O)[C@@H]1CCCN1C(=O)CNC(=O)[C@H](CC(C)C)NC(=O)[C@H](CC(N)=O)NC(=O)[C@H](CCCCNC(=O)COCCOCCNC(=O)COCCOCCNC(=O)CC[C@H](NC(=O)CCCCCCCCCCCCCCCCCCC(=O)O)C(=O)O)NC(=O)[C@H](CO)NC(=O)[C@H](CO)NC(=O)[C@H](Cc1c[nH]cn1)NC(=O)[C@H](CCCNC(=N)N)NC(=O)[C@H](CC(C)C)NC(=O)[C@H](Cc1ccccc1)NC(=O)[C@H](CC(=O)O)NC(=O)[C@H](C)NC(=O)[C@H](CC(C)C)NC(=O)[C@H](CCCNC(=N)N)NC(=O)[C@H](CCC(N)=O)NC(=O)[C@@H](NC(=O)[C@H](C)NC(=O)[C@@H]1CSSC[C@H](NC(=O)[C@@H](N)CCCNC(=N)N)C(=O)N[C@@H](CC(N)=O)C(=O)N[C@@H]([C@@H](C)O)C(=O)N[C@@H](C)C(=O)N[C@@H]([C@@H](C)O)C(=O)N1)[C@@H](C)O)C(=O)N[C@@H](CC(C)C)C(=O)N1CCC[C@H]1C(=O)N1CCC[C@H]1C(=O)N[C@H](C(=O)N[C@@H](CC(N)=O)C(=O)N[C@H](C(=O)NCC(=O)N[C@@H](CO)C(=O)N[C@@H](CC(N)=O)C(=O)N[C@H](C(=O)N1C[C@H](O)C[C@H]1C(N)=O)[C@@H](C)O)C(C)C)[C@@H](C)O [PD091] (H-RCNTATCATQRLADFLRHSSK([AEEA-AEEA-γGlu-C20 diacid])NLGPILPPTNVGSNT[Hyp]-NH2; disulfide 2-7)
  Dissolution property: Clear
  Freeze storage property: Clear
  Freeze storage yield: 101.14%

## CC[C@H](C)[C@H](NC(=O)[C@@H]1CCCN1C(=O)CNC(=O)[C@H](CC(C)C)NC(=O)[C@H](CC(N)=O)NC(=O)[C@H](CCCCNC(=O)CC[C@H](NC(=O)CCCCCCCCCCCCCCCCC(=O)O)C(=O)O)NC(=O)[C@H](CO)NC(=O)[C@H](CO)NC(=O)[C@H](Cc1c[nH]cn1)NC(=O)[C@H](CCCNC(=N)N)NC(=O)[C@H](CC(C)C)NC(=O)[C@H](Cc1ccccc1)NC(=O)[C@H](CC(=O)O)NC(=O)[C@H](C)NC(=O)[C@H](CC(C)C)NC(=O)[C@H](CCCNC(=N)N)NC(=O)[C@H](CCC(N)=O)NC(=O)[C@@H](NC(=O)[C@H](C)NC(=O)[C@@H]1CSSC[C@H](NC(=O)[C@@H](N)CCCNC(=N)N)C(=O)N[C@@H](CC(N)=O)C(=O)N[C@@H]([C@@H](C)O)C(=O)N[C@@H](C)C(=O)N[C@@H]([C@@H](C)O)C(=O)N1)[C@@H](C)O)C(=O)N[C@@H](CC(C)C)C(=O)N1CCC[C@H]1C(=O)N1CCC[C@H]1C(=O)N[C@H](C(=O)N[C@@H](CC(N)=O)C(=O)N[C@H](C(=O)NCC(=O)N[C@@H](CO)C(=O)N[C@@H](CC(N)=O)C(=O)N[C@H](C(=O)N1C[C@H](O)C[C@H]1C(N)=O)[C@@H](C)O)C(C)C)[C@@H](C)O [PD092] (H-RCNTATCATQRLADFLRHSSK([γGlu-C18 diacid])NLGPILPPTNVGSNT[Hyp]-NH2; disulfide 2-7)
  Dissolution property: Clear
  Freeze storage property: Clear
  Freeze storage yield: 101.74%

## CC[C@H](C)[C@H](NC(=O)[C@@H]1CCCN1C(=O)CNC(=O)[C@H](CC(C)C)NC(=O)[C@H](CC(N)=O)NC(=O)[C@H](CC(N)=O)NC(=O)[C@H](CCCCNC(=O)COCCOCCNC(=O)COCCOCCNC(=O)CC[C@H](NC(=O)CCCCCCCCCCCCCCCCCCC(=O)O)C(=O)O)NC(=O)[C@H](CO)NC(=O)[C@H](Cc1c[nH]cn1)NC(=O)[C@H](CCCNC(=N)N)NC(=O)[C@H](CC(C)C)NC(=O)[C@H](Cc1ccccc1)NC(=O)[C@H](CC(=O)O)NC(=O)[C@H](C)NC(=O)[C@H](CC(C)C)NC(=O)[C@H](CCCNC(=N)N)NC(=O)[C@H](CCC(N)=O)NC(=O)[C@@H](NC(=O)[C@H](C)NC(=O)[C@@H]1CSSC[C@H](NC(=O)[C@@H](N)CCCNC(=N)N)C(=O)N[C@@H](CC(N)=O)C(=O)N[C@@H]([C@@H](C)O)C(=O)N[C@@H](C)C(=O)N[C@@H]([C@@H](C)O)C(=O)N1)[C@@H](C)O)C(=O)N[C@@H](CC(C)C)C(=O)N1CCC[C@H]1C(=O)N1CCC[C@H]1C(=O)N[C@H](C(=O)N[C@@H](CC(N)=O)C(=O)N[C@H](C(=O)NCC(=O)N[C@@H](CO)C(=O)N[C@@H](CC(N)=O)C(=O)N[C@H](C(=O)N1C[C@H](O)C[C@H]1C(N)=O)[C@@H](C)O)C(C)C)[C@@H](C)O [PD095] (H-RCNTATCATQRLADFLRHSK([AEEA-AEEA-γGlu-C20 diacid])NNLGPILPPTNVGSNT[Hyp]-NH2; disulfide 2-7)
  Dissolution property: Clear
  Freeze storage property: Clear
  Freeze storage yield: 95.26%

## CC[C@H](C)[C@H](NC(=O)[C@@H]1CCCN1C(=O)CNC(=O)[C@H](CC(C)C)NC(=O)[C@H](CC(N)=O)NC(=O)[C@H](CC(N)=O)NC(=O)[C@H](CCCCNC(=O)CC[C@H](NC(=O)CCCCCCCCCCCCCCCCC(=O)O)C(=O)O)NC(=O)[C@H](CO)NC(=O)[C@H](Cc1c[nH]cn1)NC(=O)[C@H](CCCNC(=N)N)NC(=O)[C@H](CC(C)C)NC(=O)[C@H](Cc1ccccc1)NC(=O)[C@H](CC(=O)O)NC(=O)[C@H](C)NC(=O)[C@H](CC(C)C)NC(=O)[C@H](CCCNC(=N)N)NC(=O)[C@H](CCC(N)=O)NC(=O)[C@@H](NC(=O)[C@H](C)NC(=O)[C@@H]1CSSC[C@H](NC(=O)[C@@H](N)CCCNC(=N)N)C(=O)N[C@@H](CC(N)=O)C(=O)N[C@@H]([C@@H](C)O)C(=O)N[C@@H](C)C(=O)N[C@@H]([C@@H](C)O)C(=O)N1)[C@@H](C)O)C(=O)N[C@@H](CC(C)C)C(=O)N1CCC[C@H]1C(=O)N1CCC[C@H]1C(=O)N[C@H](C(=O)N[C@@H](CC(N)=O)C(=O)N[C@H](C(=O)NCC(=O)N[C@@H](CO)C(=O)N[C@@H](CC(N)=O)C(=O)N[C@H](C(=O)N1C[C@H](O)C[C@H]1C(N)=O)[C@@H](C)O)C(C)C)[C@@H](C)O [PD096] (H-RCNTATCATQRLADFLRHSK([γGlu-C18 diacid])NNLGPILPPTNVGSNT[Hyp]-NH2; disulfide 2-7)
  Dissolution property: Clear
  Freeze storage property: Clear
  Freeze storage yield: 101.99%

## CC[C@H](C)[C@H](NC(=O)[C@@H]1CCCN1C(=O)CNC(=O)[C@H](CC(C)C)NC(=O)[C@H](CC(N)=O)NC(=O)[C@H](CC(N)=O)NC(=O)[C@H](CCCCNC(=O)COCCOCCNC(=O)COCCOCCNC(=O)CC[C@H](NC(=O)CCCCCCCCCCCCCCCCC(=O)O)C(=O)O)NC(=O)[C@H](CO)NC(=O)[C@H](Cc1c[nH]cn1)NC(=O)[C@H](CCCNC(=N)N)NC(=O)[C@H](CC(C)C)NC(=O)[C@H](Cc1ccccc1)NC(=O)[C@H](CC(=O)O)NC(=O)[C@H](C)NC(=O)[C@H](CC(C)C)NC(=O)[C@H](CCCNC(=N)N)NC(=O)[C@H](CCC(N)=O)NC(=O)[C@@H](NC(=O)[C@H](C)NC(=O)[C@@H]1CSSC[C@H](NC(=O)[C@@H](N)CCCNC(=N)N)C(=O)N[C@@H](CC(N)=O)C(=O)N[C@@H]([C@@H](C)O)C(=O)N[C@@H](C)C(=O)N[C@@H]([C@@H](C)O)C(=O)N1)[C@@H](C)O)C(=O)N[C@@H](CC(C)C)C(=O)N1CCC[C@H]1C(=O)N1CCC[C@H]1C(=O)N[C@H](C(=O)N[C@@H](CC(N)=O)C(=O)N[C@H](C(=O)NCC(=O)N[C@@H](CO)C(=O)N[C@@H](CC(N)=O)C(=O)N[C@H](C(=O)N1C[C@H](O)C[C@H]1C(N)=O)[C@@H](C)O)C(C)C)[C@@H](C)O [PD097] (H-RCNTATCATQRLADFLRHSK([AEEA-AEEA-γGlu-C18 diacid])NNLGPILPPTNVGSNT[Hyp]-NH2; disulfide 2-7)
  Dissolution property: Clear
  Freeze storage property: Clear
  Freeze storage yield: 98.20%

## CC[C@H](C)[C@H](NC(=O)[C@@H]1CCCN1C(=O)CNC(=O)[C@H](CC(C)C)NC(=O)[C@H](CC(N)=O)NC(=O)[C@H](CC(N)=O)NC(=O)[C@H](CO)NC(=O)[C@H](CCCCNC(=O)COCCOCCNC(=O)COCCOCCNC(=O)CC[C@H](NC(=O)CCCCCCCCCCCCCCCCCCC(=O)O)C(=O)O)NC(=O)[C@H](Cc1c[nH]cn1)NC(=O)[C@H](CCCNC(=N)N)NC(=O)[C@H](CC(C)C)NC(=O)[C@H](Cc1ccccc1)NC(=O)[C@H](CC(=O)O)NC(=O)[C@H](C)NC(=O)[C@H](CC(C)C)NC(=O)[C@H](CCCNC(=N)N)NC(=O)[C@H](CCC(N)=O)NC(=O)[C@@H](NC(=O)[C@H](C)NC(=O)[C@@H]1CSSC[C@H](NC(=O)[C@@H](N)CCCNC(=N)N)C(=O)N[C@@H](CC(N)=O)C(=O)N[C@@H]([C@@H](C)O)C(=O)N[C@@H](C)C(=O)N[C@@H]([C@@H](C)O)C(=O)N1)[C@@H](C)O)C(=O)N[C@@H](CC(C)C)C(=O)N1CCC[C@H]1C(=O)N1CCC[C@H]1C(=O)N[C@H](C(=O)N[C@@H](CC(N)=O)C(=O)N[C@H](C(=O)NCC(=O)N[C@@H](CO)C(=O)N[C@@H](CC(N)=O)C(=O)N[C@H](C(=O)N1C[C@H](O)C[C@H]1C(N)=O)[C@@H](C)O)C(C)C)[C@@H](C)O [PD099] (H-RCNTATCATQRLADFLRHK([AEEA-AEEA-γGlu-C20 diacid])SNNLGPILPPTNVGSNT[Hyp]-NH2; disulfide 2-7)
  Dissolution property: Clear
  Freeze storage property: Clear
  Freeze storage yield: 102.80%
